Each structure is given as a SMILES string. About 2,200 (0.71%) of roughly 310,000 compounds showed an effect of 50% or more. Effects have a minus sign here. The list shows a part of the results.

For this experiment, the target named is human ether-à-go-go-related gene (hERG) potassium channel (human, UniProt Q12809). In words: primary screen, population patch clamp on CHO cells stably expressing hERG.
Chain of human ether-à-go-go-related gene (hERG) potassium channel (Q12809 whole entry, looked up): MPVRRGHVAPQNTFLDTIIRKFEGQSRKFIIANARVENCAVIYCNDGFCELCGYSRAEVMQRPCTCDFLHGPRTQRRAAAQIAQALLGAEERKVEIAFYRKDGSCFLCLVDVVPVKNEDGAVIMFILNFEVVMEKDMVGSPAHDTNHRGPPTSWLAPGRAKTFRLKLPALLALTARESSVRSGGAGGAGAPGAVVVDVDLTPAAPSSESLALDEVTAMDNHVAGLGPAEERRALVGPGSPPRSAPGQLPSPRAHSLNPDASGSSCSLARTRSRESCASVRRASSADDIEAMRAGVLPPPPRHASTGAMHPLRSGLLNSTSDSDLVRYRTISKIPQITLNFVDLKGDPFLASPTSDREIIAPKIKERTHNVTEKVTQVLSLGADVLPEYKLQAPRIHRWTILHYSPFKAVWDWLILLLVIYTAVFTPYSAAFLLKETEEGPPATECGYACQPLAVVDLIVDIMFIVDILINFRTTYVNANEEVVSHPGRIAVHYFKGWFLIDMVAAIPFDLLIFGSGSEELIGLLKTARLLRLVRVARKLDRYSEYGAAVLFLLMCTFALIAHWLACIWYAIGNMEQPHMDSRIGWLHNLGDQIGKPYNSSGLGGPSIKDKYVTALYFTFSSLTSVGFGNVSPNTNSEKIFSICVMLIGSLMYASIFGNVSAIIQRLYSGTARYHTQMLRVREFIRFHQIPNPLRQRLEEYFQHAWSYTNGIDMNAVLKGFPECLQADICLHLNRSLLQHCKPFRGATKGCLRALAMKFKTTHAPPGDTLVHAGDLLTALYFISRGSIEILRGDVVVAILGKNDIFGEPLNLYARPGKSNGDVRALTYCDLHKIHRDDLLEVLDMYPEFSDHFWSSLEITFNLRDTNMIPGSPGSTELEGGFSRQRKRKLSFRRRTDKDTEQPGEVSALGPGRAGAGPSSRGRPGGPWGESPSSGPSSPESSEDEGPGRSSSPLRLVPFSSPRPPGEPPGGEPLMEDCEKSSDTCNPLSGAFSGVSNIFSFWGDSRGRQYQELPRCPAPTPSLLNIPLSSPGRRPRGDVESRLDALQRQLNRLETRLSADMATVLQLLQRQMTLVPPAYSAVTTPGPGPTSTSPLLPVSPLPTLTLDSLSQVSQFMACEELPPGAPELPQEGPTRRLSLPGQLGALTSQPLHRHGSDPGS
Regarding `CC(C)CCNC(=O)CCCc1ccccc1`, the “hERG current change (%, negative = inhibition) at 1uM” value came out at 22.1%.

Take `Cc1cc(-c2[nH]nc3c2C(c2cccc(O)c2)C(C#N)=C(N)O3)c(C)s1` (stereo not shown): the “hERG current change (%, negative = inhibition) at 1uM” value was -0.819%.

With `COc1cc(NC(=O)c2cc3c(=O)n(C)c4ccccc4c3n2C)cc(OC)c1OC`, the “hERG current change (%, negative = inhibition) at 1uM” value is on record as 11.8%.

Regarding `COCCn1c(SCC(=O)NC2(C#N)CCCCC2)nc2ccccc2c1=O`, the “hERG current change (%, negative = inhibition) at 1uM” value is -12.8%.

For `Cc1ccc(SCC(=O)Nc2cccc(NC(=O)c3ccco3)c2)cc1`, the “hERG current change (%, negative = inhibition) at 1uM” value stood at 11.4%.

For the molecule `O=C(C1CC(c2ccccc2O)=NO1)N1CCC2(CC1)OCCO2` (stereo not shown), the “hERG current change (%, negative = inhibition) at 1uM” value amounted to 9.19%.

With `CN(CC(=O)NCCCc1ccccc1)Cc1ccc(Br)cc1`, the “hERG current change (%, negative = inhibition) at 1uM” value stood at 10.2%.

On to `COc1ccc(C)cc1NC(=O)C(OC(=O)c1cc(C)oc1C)c1ccccc1` (stereo not shown), for which the “hERG current change (%, negative = inhibition) at 1uM” value is 7.61%.

Turning to `CCOc1ccccc1NC(=O)N1CCc2ccccc2C1`, the “hERG current change (%, negative = inhibition) at 1uM” value was 18.1%.

With `O=C1CCCC2=C1C(c1ccccc1)CC(=O)N2c1ccc(F)cc1F` (stereo not shown), the “hERG current change (%, negative = inhibition) at 1uM” value turned out to be 6.84%.

As for `Cn1c(=O)oc2cc(S(=O)(=O)NCc3ccccc3)ccc21`, the “hERG current change (%, negative = inhibition) at 1uM” value came out at 12.8%.

Turning to `Cc1ccc(C(=O)N2CCN(c3ccccn3)CC2)cc1[N+](=O)[O-]`, the “hERG current change (%, negative = inhibition) at 1uM” value was 8.77%.

Take `O=C1Oc2ccccc2C(=O)/C1=C/c1ccccc1O`: the “hERG current change (%, negative = inhibition) at 1uM” value came out at 5.07%.

For the molecule `CC(=O)Nc1nn(C)c2nc3cc(C)ccc3cc12`, the “hERG current change (%, negative = inhibition) at 1uM” value is reported as 8.35%.

Take `Cc1ccc(C2Nc3cccc4cccc(c34)N2)s1`: the “hERG current change (%, negative = inhibition) at 1uM” value worked out at 5.44%.

Turning to `COc1ccc(OC)c2sc(N3CCN(C(=O)c4ccc([N+](=O)[O-])s4)CC3)nc12`, the “hERG current change (%, negative = inhibition) at 1uM” value was -9.5%.

With `Cn1c(N)cc(=O)n(Cc2ccccc2)c1=O`, the “hERG current change (%, negative = inhibition) at 1uM” value is on record as 11.1%.

For `CCC(=O)N1C(Cc2ccccc2)COC1(C)C` (stereo not shown), the “hERG current change (%, negative = inhibition) at 1uM” value is recorded as 7.04%.

Turning to `COCc1cc(C)nc(N2CCCCC2)c1C#N`, the “hERG current change (%, negative = inhibition) at 1uM” value was determined as 13.1%.

In the case of `Cc1ccc(NC(=O)c2ccccc2Cl)c(Cl)c1`, the “hERG current change (%, negative = inhibition) at 1uM” value worked out at 7.11%.

For the molecule `COc1ccc(NC(=O)/C(C#N)=C/c2ccc(OCCN3CCOCC3)c(OC)c2)c(OC)c1`, the “hERG current change (%, negative = inhibition) at 1uM” value was determined as 13.2%.

In the case of `COc1cc(C)c(Cl)c(C)c1S(=O)(=O)NC1CC(C)(C)NC(C)(C)C1`, the “hERG current change (%, negative = inhibition) at 1uM” value is given as 12.7%.

As for `O=C(CN1CCOCC1)Nc1ccccc1C(=O)Nc1ccccc1`, the “hERG current change (%, negative = inhibition) at 1uM” value is on record as 7.99%.

With `CCOC(=O)c1sc(NC(=O)CSc2nc(-c3ccco3)cc(C(F)(F)F)n2)c(C(=O)OC)c1C`, the “hERG current change (%, negative = inhibition) at 1uM” value stood at 11.4%.

In the case of `O=C(O)C(=O)O.c1csc(-c2nnc(N3CCCCCC3)c3ccccc23)c1`, the “hERG current change (%, negative = inhibition) at 1uM” value is reported as -0.203%.

With `Cc1ccc(NC(=S)NCCSc2ccc(Cl)cc2)c(C)c1`, the “hERG current change (%, negative = inhibition) at 1uM” value was 12.6%.

For `OCC1CCCCN1C(=S)NCc1ccco1` (stereo not shown), the “hERG current change (%, negative = inhibition) at 1uM” value is reported as -3.9%.

Take `Cn1c(=O)[nH]c(=O)c2c1nc(N1CCN(Cc3ccccc3)CC1)n2CCSc1ncccn1`: the “hERG current change (%, negative = inhibition) at 1uM” value worked out at 6.83%.

Regarding `O=C(COC(=O)C1CCN(c2ccc(C(F)(F)F)cn2)CC1)NCc1ccc(F)cc1`, the “hERG current change (%, negative = inhibition) at 1uM” value amounted to 8.96%.

In the case of `COC(=O)CCCC(=O)Nc1ccc(Br)cc1`, the “hERG current change (%, negative = inhibition) at 1uM” value was found to be 16.3%.

For `Cc1ccccc1OCc1occc1C(=O)Nc1cccc(-n2cnnn2)c1`, the “hERG current change (%, negative = inhibition) at 1uM” value is recorded as 5.69%.

`C=C(C)CSc1nnc([C@@H]2CCCN2C(=O)OC(C)(C)C)o1`: the “hERG current change (%, negative = inhibition) at 1uM” value turned out to be 15.5%.

`CCc1noc(C)c1C(=O)N1CCN(S(=O)(=O)c2ccc(Cl)cc2)CC1`: the “hERG current change (%, negative = inhibition) at 1uM” value was determined as 3.82%.

`CCCc1nc2ccccc2c(=O)n1-c1ccc(OC)cc1`: the “hERG current change (%, negative = inhibition) at 1uM” value is on record as 8.32%.

On to `COc1cc2c(cc1OC)C(CC#N)=NC(C)(C)C2`, for which the “hERG current change (%, negative = inhibition) at 1uM” value is 16.1%.

For the molecule `O=C(Cn1cc[n+](Cc2ccccc2)c1)c1ccc([N+](=O)[O-])cc1.[Br-]`, the “hERG current change (%, negative = inhibition) at 1uM” value is listed as -0.203%.

Take `C=CCn1c(CCNC(=O)c2ccco2)nc2ccccc21`: the “hERG current change (%, negative = inhibition) at 1uM” value turned out to be 9.14%.

For `Cc1cccc(NC(=O)c2cc(NC(=O)c3ccco3)ccc2N2CCCCC2)c1`, the “hERG current change (%, negative = inhibition) at 1uM” value was found to be 14.8%.

Take `CCOC(=O)C(C)n1cnc2c(nnn2-c2ccc(C)cc2)c1=O` (stereo not shown): the “hERG current change (%, negative = inhibition) at 1uM” value is recorded as -2.62%.

On to `CCCC(=O)Nc1ccc(Sc2ccc([N+](=O)[O-])cc2)cc1`, for which the “hERG current change (%, negative = inhibition) at 1uM” value was determined as 8.28%.

As for `CCN(CC)C1CC(=O)N(c2cccc(C)c2)C1=O` (stereo not shown), the “hERG current change (%, negative = inhibition) at 1uM” value is recorded as 0.195%.

Regarding `Cn1cc(-c2ccccc2C(=O)O)c(=O)c2cc(Cl)ccc21`, the “hERG current change (%, negative = inhibition) at 1uM” value was found to be 13.1%.

For the molecule `O=C(CNC(=O)c1ccc(-c2ccccc2)cc1)OCc1c(Cl)cccc1Cl`, the “hERG current change (%, negative = inhibition) at 1uM” value is given as 5.16%.

As to `Br.N=C1c2ccccc2CN1NC(=O)C1CC1`, the “hERG current change (%, negative = inhibition) at 1uM” value amounted to 7.71%.

For `CCN(CC)S(=O)(=O)c1ccc2c(c1)nc(CCC(=O)Nc1ccc3c(c1)OCO3)n2C`, the “hERG current change (%, negative = inhibition) at 1uM” value is on record as 9.95%.

For `COc1cc(CNC(=O)c2ccc(Cn3nc(C)c(Cl)c3C)o2)cc(OC)c1`, the “hERG current change (%, negative = inhibition) at 1uM” value was determined as 11.2%.

Consider `O=C(NCc1ccco1)/C(=C\c1cccs1)NC(=O)c1ccsc1`, for which the “hERG current change (%, negative = inhibition) at 1uM” value is reported as 3.9%.

As for `COc1ccc(C(=O)Nc2cccc(-c3cnc4ccccc4n3)c2)cc1`, the “hERG current change (%, negative = inhibition) at 1uM” value is given as 3.38%.

As to `COC(=O)C1(C)NC(c2ccc(O)cc2)C2C(=O)N(c3ccccc3)C(=O)C21` (stereo not shown), the “hERG current change (%, negative = inhibition) at 1uM” value worked out at 12.3%.

Turning to `COc1cc(C(=O)N(Cc2cccc(Cl)c2)C2CCS(=O)(=O)C2)cc(OC)c1OC` (stereo not shown), the “hERG current change (%, negative = inhibition) at 1uM” value was 4.71%.

For the molecule `CCOc1ccccc1NC(=O)COC(=O)Cc1ccsc1`, the “hERG current change (%, negative = inhibition) at 1uM” value is on record as 6.88%.

For the molecule `Cc1ccc(C(C)C)c(OCC#CCN2CCOCC2)c1.O=C(O)C(=O)O`, the “hERG current change (%, negative = inhibition) at 1uM” value is 14%.

In the case of `CCOC(=O)C(CC)Sc1nc2c(c(=O)[nH]c(=O)n2C)n1CCc1ccccc1` (stereo not shown), the “hERG current change (%, negative = inhibition) at 1uM” value is -30.9%.

Take `CCN(CC)S(=O)(=O)c1ccc(C)c(NC(=O)COC(=O)CNC(=O)c2ccc(C(C)(C)C)cc2)c1`: the “hERG current change (%, negative = inhibition) at 1uM” value is reported as 15%.

For `CC(=O)c1c(C)nc2ccc(Br)cc2c1C(=O)O`, the “hERG current change (%, negative = inhibition) at 1uM” value was 16.5%.

For `Cc1cc(=O)oc2cc(OC(C)C)ccc12`, the “hERG current change (%, negative = inhibition) at 1uM” value worked out at 14.6%.

On to `COc1ccc(/C=C/C(=O)NC(=S)Nc2cc([N+](=O)[O-])ccc2O)cc1OC`, for which the “hERG current change (%, negative = inhibition) at 1uM” value came to 14.3%.

Turning to `CCO.Cc1cc(C)c2nc(NC(=O)c3cccc(S(=O)(=O)N4CCc5ccccc54)c3)sc2c1`, the “hERG current change (%, negative = inhibition) at 1uM” value is reported as 11%.

The values above are taken from article PMC4336329 (PLoS ONE, 2015).
